The whole screen tested about 310,000 compounds, of which about 2,200 (0.71%) showed an effect of 50% or more. The effect is printed as a negative number. This is one part of the list.
Target: human ether-à-go-go-related gene (hERG) potassium channel (human, UniProt Q12809)
Test: primary screen, population patch clamp on CHO cells stably expressing hERG

Chain of human ether-à-go-go-related gene (hERG) potassium channel (Q12809 whole entry, looked up): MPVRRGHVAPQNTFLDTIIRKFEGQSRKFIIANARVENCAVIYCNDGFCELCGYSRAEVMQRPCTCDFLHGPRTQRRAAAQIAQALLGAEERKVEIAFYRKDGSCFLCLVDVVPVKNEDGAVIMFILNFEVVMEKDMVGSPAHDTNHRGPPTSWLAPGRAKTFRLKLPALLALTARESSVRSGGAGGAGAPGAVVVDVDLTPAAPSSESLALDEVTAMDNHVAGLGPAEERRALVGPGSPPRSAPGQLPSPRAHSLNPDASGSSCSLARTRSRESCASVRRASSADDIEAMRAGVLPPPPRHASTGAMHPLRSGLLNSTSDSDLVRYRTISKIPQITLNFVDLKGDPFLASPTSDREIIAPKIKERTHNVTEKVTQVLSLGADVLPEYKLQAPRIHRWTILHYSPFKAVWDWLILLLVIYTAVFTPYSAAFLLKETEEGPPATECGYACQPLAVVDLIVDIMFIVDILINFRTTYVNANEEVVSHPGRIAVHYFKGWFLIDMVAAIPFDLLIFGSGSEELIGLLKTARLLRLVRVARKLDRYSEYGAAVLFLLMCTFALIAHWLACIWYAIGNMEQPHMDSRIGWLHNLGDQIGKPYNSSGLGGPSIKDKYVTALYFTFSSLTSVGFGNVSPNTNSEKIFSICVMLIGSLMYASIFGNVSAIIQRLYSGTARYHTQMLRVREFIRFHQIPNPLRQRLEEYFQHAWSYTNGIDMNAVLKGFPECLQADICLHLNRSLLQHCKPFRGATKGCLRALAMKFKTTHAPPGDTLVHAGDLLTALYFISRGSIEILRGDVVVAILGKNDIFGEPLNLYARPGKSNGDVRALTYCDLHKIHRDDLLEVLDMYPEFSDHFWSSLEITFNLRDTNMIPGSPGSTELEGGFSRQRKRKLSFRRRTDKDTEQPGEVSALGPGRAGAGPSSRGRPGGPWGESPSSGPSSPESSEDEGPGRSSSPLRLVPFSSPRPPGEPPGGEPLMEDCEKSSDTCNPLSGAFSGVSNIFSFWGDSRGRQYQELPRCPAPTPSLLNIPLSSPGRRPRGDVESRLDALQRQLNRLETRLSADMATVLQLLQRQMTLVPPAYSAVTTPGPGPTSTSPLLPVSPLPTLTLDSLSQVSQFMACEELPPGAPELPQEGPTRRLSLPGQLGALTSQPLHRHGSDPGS

In order of falling “hERG current change (%, negative = inhibition) at 1uM” value:
1. COc1ccc(CCNC(=O)CS(=O)Cc2nc(-c3ccccc3F)oc2C)cc1OC (stereo not shown)  22%
2. CCN(CC)C(=O)c1[nH]cnc1C(=O)Nc1ccc(OC)cc1  19.2%
3. Cc1cc(S(=O)(=O)NC2CCCCC2)ccc1OCC(=O)NCC1CCCO1 (stereo not shown)  17.2%
4. CCOc1ncccc1C(=O)OCC(=O)NC1CC1  16.7%
5. Cc1ccccc1CN1C[C@@H]2C[C@@H](c3cnc(N4CCOCC4)s3)N3CCC[C@@]23C1=O  16.4%
6. C=CCOC(=O)c1sc(NC(=O)c2ccc(OC)cc2)nc1C  16.2%
7. CN(Cc1ccco1)S(=O)(=O)c1nnc(NC(=O)c2cccc(Cl)c2)s1  14%
8. CCOc1ccc(-c2nnn(CC(=O)Nc3cccc(OC)c3)n2)cc1OCC  13.3%
9. O=C(NCC1CCCO1)c1ccc(NC(=O)C2CC=CCC2C(=O)O)cc1 (stereo not shown)  13.3%
10. Cc1c(C(=O)OCC(=O)N(C)c2ccccc2)cccc1[N+](=O)[O-]  12.6%
11. CN=c1scc(-c2cc(OC)ccc2OC)n1/N=C/c1c(C)[nH]c2ccccc12  12.6%
12. COc1cccc(-c2ncc3ccccc3c2COC(=O)c2ccc(C(F)(F)F)cc2)c1  12.6%
13. CCOC(=O)c1sc(/N=C/c2c(O)n(-c3ccccc3)c(=O)[nH]c2=O)c(C#N)c1C  12.3%
14. CCN(CC)P1(=O)OC(c2cc(OC)c(OC)c(OC)c2)=Nc2c1c(C)nn2-c1ccccc1 (stereo not shown)  12.1%
15. O=C(CN1CCN(Cc2ccccc2Cl)CC1)N/N=C/c1ccccn1  11.8%
16. CCC(C)NC(=O)c1ccc([N+](=O)[O-])c(Cl)c1 (stereo not shown)  11.5%
17. COC(=O)CSc1nc2nc(-c3cccs3)cc(C(F)(F)F)c2c(=O)[nH]1  11.4%
18. CC(C)CN1CCC(=O)N([C@H](CO)Cc2ccccc2)CC1  11.4%
19. O=C(O)C(=O)O.O=C(c1cccs1)N1CCN(Cc2ccccn2)CC1  11.4%
20. COC(=O)c1ccc(/C=N/OCC(=O)NCCc2ccc(OC)c(OC)c2)cc1  11.3%
21. COC(=O)c1ccc(NC(=O)CN2CCCC2)cc1  11.3%
22. COc1ccc(C2(CNC(=O)c3ccccc3[N+](=O)[O-])CCOCC2)cc1  11.1%
23. Cl.O=C(CN1CCCC1)N1c2ccccc2C=Cc2ccccc21  11.1%
24. O=C(CSc1nc2c(cnn2-c2ccc(F)cc2)c(=O)[nH]1)N1CCCCCC1  11%
25. Cc1ccc(S(=O)(=O)N2CCN(C(=O)c3ccccn3)CC2)cc1  10.9%
26. COc1cc(SC)ccc1C(=O)Nc1ccc2c(c1)CCC2  10.4%
27. O=C(CSCc1ccc(Cl)cc1)N1CCCCC1  10.1%
28. Cc1ccc(C(=O)N2CCC(C(=O)NC3CCCC3)CC2)cc1  10.1%
29. CCOC(=O)CN1C(=O)N[C@H](c2ccc(Br)cc2)C(C(C)=O)=C1C  9.87%
30. COc1ccccc1Nc1nc(-c2sc(NC(=O)c3ccccc3)nc2C)cs1  9.63%
31. O=c1[nH]c(=S)[nH]c(O)c1C(c1ccccn1)c1c(O)[nH]c(=S)[nH]c1=O  9.46%
32. C=C(C)C(=O)OC1(C(F)(F)F)Oc2cc(C)ccc2NC1=O (stereo not shown)  9.34%
33. COc1cc(/C=N/Nc2nn3cnnc3c3ccccc23)cc(OC)c1OC  9.29%
34. CCCCn1nc2cc(C(=O)NCC34CC5CC(CC(C5)C3)C4)ccc2c1OCC  8.81%
35. O=C(CSc1nnc(-c2ccco2)o1)NC(=O)C1COc2ccccc2O1 (stereo not shown)  8.46%
36. O=C(CN1C(=O)C2CCCCN2C(=O)c2ccccc21)Nc1ccc(F)cc1.O=C(O)C(=O)O (stereo not shown)  8.42%
37. O=C(Nc1ncc(Cc2ccccc2)s1)c1cccs1  8.34%
38. COc1ccc(NC(=O)CSc2nncs2)cc1OC  8.22%
39. O=S1(=O)CCN(Cc2ccc(F)cc2)CC1  8.07%
40. COc1cccc(CN2CCN(S(=O)(=O)c3ccc(Cl)s3)CC2)c1  8.04%
41. Cc1ccc(-c2ccc(C(=O)NCc3ccc(Cl)cc3)o2)c2ccccc12  7.9%
42. CCOC(=O)N1CCC(N2Cc3cccc(C(=O)Nc4ccc(N(CC)CC)cc4C)c3C2=O)CC1  6.74%
43. Cc1cccc(C(=O)Nc2cccc(OCC(=O)O)c2)c1  6.5%
44. O=C(NC(=S)Nc1ccc(N2CCOCC2)cc1)c1cccs1  6.36%
45. CCn1c(=O)c(CCC(=O)N2CCN(c3ccccn3)CC2)c(C)c2c(C)nn(-c3ccccc3)c21  6.18%
46. COc1ccc(NC(=O)c2cc(-c3ccco3)nc3ccccc23)cc1S(=O)(=O)N1CCOCC1  5.75%
47. c1ccc(OCc2nnc3n2N=C(c2ccccc2)CS3)cc1  4.99%
48. Clc1cccc(Cl)c1/C=N\Nc1nccs1  4.98%
49. Cc1cc(-c2ccccc2)nc(N(C)C)c1S(C)(=O)=O  4.07%
50. Cc1ccccc1/C=C\c1nc2ccccc2c(=O)n1Cc1ccccc1  3.77%
51. Cc1ccc(/C=N/NC(=O)c2nnn(-c3nonc3N)c2CNc2ccccc2)cc1  3.23%
52. Cc1ccccc1Cn1c(=O)n(CCCC(=O)NCc2ccco2)c(=O)c2ccccc21  3.14%
53. O=C(c1ccccc1)N1CCSC1=S  3.13%
54. COc1ccc(NC(C)=O)cc1NC(=O)CN1CCN(S(=O)(=O)c2ccc(C(C)C)cc2)CC1  2.23%
55. CCc1[nH]nc(C(=O)N2CCCC(N3CCN(c4ccccc4C)CC3)C2)c1C (stereo not shown)  1.71%
56. CC(=O)N1c2c(cc(Br)cc2S(=O)(=O)N2CCN(C(=O)c3ccco3)CC2)CC1C (stereo not shown)  1.34%
57. CCOc1ccc(NC(=O)c2ccccc2NC(=O)CN(C)CC(=O)Nc2ccc(C)cc2)cc1  1.17%
58. O=C(CCCC(=O)N1CCN(c2ccccc2F)CC1)c1ccccc1  0.99%
59. Cc1ccnc(-n2sc3ccccc3c2=O)n1  0.984%
60. O=C(NCc1ccccc1)[C@@H]1CSC2c3ccccc3C(=O)N21 (stereo partly shown)  0.963%
61. O=C(O)Cn1nnnc1-c1ccc(F)cc1  0.87%
62. COc1ccc(-n2nc(C(=O)NCC(=O)NCCCN3CC(C)CC(C)C3)c3ccccc3c2=O)cc1 (stereo not shown)  0.517%
63. CCC(C(=O)N1CCN(S(=O)(=O)c2ccc(F)cc2)CC1)c1ccccc1 (stereo not shown)  0.115%
64. COc1cc(/C=C/C(=O)OCC(=O)NC2CCS(=O)(=O)C2)ccc1OC(F)F (stereo not shown)  0.101%
65. CCCCn1c(SCC(=O)Nc2ccc3c(c2)CCC3)nc2ccccc2c1=O  -0.515%
66. Cc1ccc(NC(=O)N2CCCC(c3nc(-c4ccc(F)cc4)no3)C2)cc1 (stereo not shown)  -0.763%
67. COc1ccc(/C=C/C(=O)NC(=S)NNC(=O)c2cccnc2)cc1OC  -1.11%
68. O=C(CCSc1ccc(Cl)cc1)NCc1ccncc1  -1.61%
69. CCOC(=O)c1c(C)nc(-c2ccccc2)nc1NC(C)=O  -1.89%
70. Cc1cc(CNC(=O)Cc2ccc(F)cc2)c2ccccc2n1  -2.68%
71. COC(=O)C1=C(N)Oc2cc(C)n(Cc3ccccc3)c(=O)c2C1c1ccccc1 (stereo not shown)  -3.42%
72. CC(C)CN(C(=O)COc1ccc([N+](=O)[O-])cc1)c1c(N)n(CC(C)C)c(=O)[nH]c1=O  -3.6%
73. CCOc1ccc(C(=O)Nc2c3c(nn2-c2cccc(Cl)c2)CS(=O)C3)cc1 (stereo not shown)  -3.81%
74. Cn1cnnc1Sc1nc2c(c(=O)n(C)c(=O)n2C)n1Cc1ccccc1Cl  -4.45%
75. CCOc1ccc(/C(O)=C2/C(=O)C(=O)N(Cc3cccnc3)C2c2ccc(N(C)C)cc2)c(C)c1 (stereo not shown)  -4.94%
76. Cc1nn(-c2nc3ccccc3n2Cc2ccccc2)c2c1C(=O)CC(C)(C)C2  -5.11%
77. CCCc1ccc2oc(C(=O)N(Cc3ccncc3)CC3CCCO3)c(C)c2c1 (stereo not shown)  -5.93%
78. O=C(O)c1ccccc1Nc1ccccc1C(=O)O  -6.65%
79. O=C1CN(C(=O)CCN2CCOCC2)C(c2ccccc2)c2cc(Br)ccc2N1 (stereo not shown)  -8.54%
80. CCOC(=O)N1CCN(Cc2nc3c(c(=O)n(C)c(=O)n3C)n2Cc2ccc(F)cc2)CC1  -9.89%
81. Cc1c(C(=O)N2CCN(c3ccc([N+](=O)[O-])cc3)CC2)oc2ccccc12  -12.9%
82. CCc1ccc(NC(=O)CN2CCCN(S(=O)(=O)c3ccc(F)cc3)CC2)cc1  -21.2%
83. O=C(CSc1nc2ccc([N+](=O)[O-])cc2s1)NCC1CCCO1 (stereo not shown)  -22.3%
84. Cc1occc1-c1nnc(SCc2cc(=O)n3cc(Br)ccc3n2)n1C  -29.4%
85. O=C(CN1CCN(Cc2ccc(Cl)cc2)CC1)N/N=C/c1ccncc1  -47.4%

— PMC4336329 (PLoS ONE, 2015)
